Assay results: the BET-seq Pho4 binding data (Le et al. 2018)
The other results are listed elsewhere or left out. These are noisy estimates, calculated here from bound and input reads.

molecular target: T1, Pho4 (S. cerevisiae) (UniProt P07270); test: relative binding free energy (BET-seq); higher = weaker binding; conditions: reference: library average
T1 sequence: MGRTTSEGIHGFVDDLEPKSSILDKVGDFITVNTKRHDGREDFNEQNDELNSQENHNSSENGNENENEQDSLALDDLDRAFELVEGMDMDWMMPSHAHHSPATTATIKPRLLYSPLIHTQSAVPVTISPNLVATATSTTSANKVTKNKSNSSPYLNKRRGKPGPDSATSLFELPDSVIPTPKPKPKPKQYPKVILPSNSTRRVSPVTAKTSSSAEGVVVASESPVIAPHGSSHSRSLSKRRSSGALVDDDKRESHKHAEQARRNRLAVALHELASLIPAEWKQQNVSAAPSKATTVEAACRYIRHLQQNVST

Sequence | relative binding free energy
GTAATCACGTGGGTGA | 0.16 kcal/mol
CGCTACACGTGGAGTG | 0.22 kcal/mol
GGGGGCACGTGGCTAT | -0.22 kcal/mol
GGGTCCACGTGGGGCT | -0.28 kcal/mol
TAGGTCACGTGCGTAT | -0.04 kcal/mol
AATTCCACGTGGTGGT | 0.14 kcal/mol
AGGTTCACGTGAGAGT | 0.48 kcal/mol
CTTGTCACGTGATTAT | 0.06 kcal/mol
TACTGCACGTGGCTTT | -0.02 kcal/mol
CATTGCACGTGTGTAT | -0.04 kcal/mol
GTTGGCACGTGTTAAA | -0.01 kcal/mol
GGTCGCACGTGTAGCG | 0.05 kcal/mol
GGATGCACGTGTGGCA | 0.14 kcal/mol
CCGTGCACGTGTTTGG | -0.09 kcal/mol
GGTCTCACGTGAATTG | 0.43 kcal/mol
GGGTACACGTGTAGGA | 0.13 kcal/mol
GGCGGCACGTGGAAGT | 0.04 kcal/mol
TTTTGCACGTGTGTGT | 0.08 kcal/mol
AGTTGCACGTGTGCAG | 0.08 kcal/mol
AGAGGCACGTGATATG | -0.23 kcal/mol
GGGGGCACGTGTGGTG | -0.04 kcal/mol
AGGGGCACGTGCCGCG | -0.16 kcal/mol
GGTGGCACGTGGTTCG | -0.1 kcal/mol
TTGGGCACGTGTATCG | -0.09 kcal/mol
AGGAGCACGTGGTCGT | -0.16 kcal/mol

Sequence | relative binding free energy
TATAACACGTGTTCGG | 0 kcal/mol
TACGTCACGTGCGTGG | 0.01 kcal/mol
TTGTGCACGTGCATGG | 0.01 kcal/mol
AATTGCACGTGTGAAA | 0.15 kcal/mol
CTGTTCACGTGGTTAC | 0.28 kcal/mol
TATTGCACGTGTGGTC | 0.15 kcal/mol
AGTTTCACGTGCATAT | 0.13 kcal/mol
TTGGGCACGTGTAATC | 0.03 kcal/mol
GGGTTCACGTGTAGCG | 0.45 kcal/mol
GGGGACACGTGATGGC | 0.14 kcal/mol
TGTTACACGTGAAATT | 0.37 kcal/mol
TCGATCACGTGTTGGG | 0.12 kcal/mol
TTGGCCACGTGTTCTT | -0.09 kcal/mol
AGCGACACGTGTGCGG | 0.01 kcal/mol
AGCGACACGTGTGAGG | 0.05 kcal/mol
ATGGGCACGTGGGCAG | -0.32 kcal/mol
GCAGTCACGTGAGGTG | 0.3 kcal/mol
TGAGCCACGTGAGGGA | 0.1 kcal/mol
GTTTACACGTGTACTG | 0.18 kcal/mol
GTGCGCACGTGGGTAC | -0.14 kcal/mol
GTGTTCACGTGTGCGG | 0.26 kcal/mol
GGTGTCACGTGAAGAG | 0.16 kcal/mol
AAAGTCACGTGGTGTC | 0.06 kcal/mol
TGGCCCACGTGCGGTG | -0.12 kcal/mol
TCTTGCACGTGTGGTA | 0.03 kcal/mol

Sequence | relative binding free energy
TTTTACACGTGCGTTA | 0.1 kcal/mol
CTTGGCACGTGGGCAG | -0.28 kcal/mol
GGGAGCACGTGTCGTA | -0.07 kcal/mol
CTTGTCACGTGGAGAT | 0.16 kcal/mol
ACTTACACGTGTTGTG | -0.07 kcal/mol
TAGTCCACGTGTGGAG | 0.15 kcal/mol
ATCTTCACGTGTTGTT | 0.12 kcal/mol
TATATCACGTGTTGGT | 0.24 kcal/mol
TTTGTCACGTGCGTCA | 0 kcal/mol
ATTGTCACGTGCAATG | 0.04 kcal/mol
GTAGACACGTGTAATT | 0.26 kcal/mol
ATGAACACGTGTAAGG | 0.06 kcal/mol
GTCGTCACGTGAGAGG | 0.31 kcal/mol
GTTTTCACGTGCCGTT | 0.31 kcal/mol
GTAACCACGTGTTTTT | 0.1 kcal/mol
GAAATCACGTGGGGGT | 0.13 kcal/mol
GGACGCACGTGTGGTA | 0.02 kcal/mol
CTTATCACGTGTAAGG | 0.09 kcal/mol
TGTCGCACGTGTAAGG | 0.01 kcal/mol
GTGGTCACGTGGTACG | 0.03 kcal/mol
TTTTGCACGTGACGTG | 0.1 kcal/mol
GGGGGCACGTGGGGCA | -0.2 kcal/mol
GCTTGCACGTGGTAGT | -0.02 kcal/mol
TGAACCACGTGGGGTG | -0.24 kcal/mol
GATTTCACGTGGGGAG | 0.3 kcal/mol

Sequence | relative binding free energy
CTTGGCACGTGGGGGG | -0.2 kcal/mol
TCGGTCACGTGGCTGG | -0.01 kcal/mol
TTCTGCACGTGGAGTC | 0.12 kcal/mol
TGTGCCACGTGGGTAT | -0.19 kcal/mol
GCTGCCACGTGTGGGG | -0.08 kcal/mol
GGCATCACGTGGTGGC | 0.2 kcal/mol
GTTGGCACGTGCAAGG | -0.12 kcal/mol
TTACGCACGTGTGATG | -0.13 kcal/mol
GTAGTCACGTGATCGT | 0.22 kcal/mol
TAAGTCACGTGTTTAG | 0.2 kcal/mol
TATTACACGTGATGGA | 0.17 kcal/mol
GTAAGCACGTGTTTCT | 0.1 kcal/mol
TCAGTCACGTGTAGTA | 0.07 kcal/mol
CTTAGCACGTGGATTG | 0.13 kcal/mol
GTGTACACGTGATGCG | 0.11 kcal/mol
AGCAGCACGTGAATGG | 0.24 kcal/mol
TTTAACACGTGCGTTA | -0.09 kcal/mol
CATTTCACGTGAGTAT | 0.43 kcal/mol
TCGTTCACGTGGTTGC | 0.27 kcal/mol
GCTTGCACGTGAGGAA | 0.36 kcal/mol
AGGTTCACGTGGTTGT | 0.29 kcal/mol
TAAAGCACGTGTGATG | -0.15 kcal/mol
TATTACACGTGAGTAG | 0.34 kcal/mol
GGGCTCACGTGCGTGG | 0.14 kcal/mol
AACAGCACGTGTGTGG | 0.07 kcal/mol

Sequence | relative binding free energy
TGCTTCACGTGTTCTT | 0.37 kcal/mol
GGTAGCACGTGCTTGA | -0.13 kcal/mol
TATGCCACGTGGGGAA | -0.24 kcal/mol
ATAAGCACGTGTAGAG | -0.06 kcal/mol
TTATTCACGTGGCTCT | 0.13 kcal/mol
TTTTACACGTGGTTAG | 0.06 kcal/mol
GAAAGCACGTGTTCGG | 0.06 kcal/mol
GGTGCCACGTGGGGTC | -0.26 kcal/mol
GAAGTCACGTGTTGTG | 0.28 kcal/mol
GTAGGCACGTGCGATT | 0.11 kcal/mol
AGAGTCACGTGGAGGA | 0.2 kcal/mol
TGTGTCACGTGTACTC | 0.11 kcal/mol
AGGAGCACGTGGGGAG | -0.19 kcal/mol
TTGGTCACGTGTATAG | 0.18 kcal/mol
TCATGCACGTGATGGT | 0 kcal/mol
AGTGGCACGTGTCTAG | -0.12 kcal/mol
GGATCCACGTGGTGTG | -0.06 kcal/mol
GTGCCCACGTGTGGGA | -0.07 kcal/mol
TAATTCACGTGTGAAT | 0.21 kcal/mol
GGCAACACGTGGGGGC | -0.1 kcal/mol
TTAGGCACGTGTCTGG | -0.21 kcal/mol
GGTTGCACGTGCTGTT | -0.02 kcal/mol
GTTGTCACGTGAGCTG | 0.36 kcal/mol
TATGTCACGTGTAGTG | 0.19 kcal/mol
TTAAGCACGTGGCTGG | -0.14 kcal/mol

Sequence | relative binding free energy
CGATGCACGTGGATGT | -0.1 kcal/mol
GTCTTCACGTGTTTTC | 0.33 kcal/mol
GTATGCACGTGAGGCT | 0.2 kcal/mol
GGCAGCACGTGAGGGG | 0.22 kcal/mol
GTCTTCACGTGGTTAT | 0.33 kcal/mol
GGAGGCACGTGAGCGT | 0.14 kcal/mol
TGGCGCACGTGGCGCG | -0.14 kcal/mol
GCGTTCACGTGTCGGG | 0.39 kcal/mol
GGCGACACGTGGGTGA | -0.17 kcal/mol
TACGTCACGTGGTTCG | 0.01 kcal/mol
GCTGGCACGTGAGGTT | 0.18 kcal/mol
ATTGCCACGTGGTCGG | -0.27 kcal/mol
AATCTCACGTGGATGT | 0.17 kcal/mol
CTATACACGTGTTTTT | 0 kcal/mol
GTTAACACGTGCGGTG | 0.1 kcal/mol
TCGCACACGTGTGGGG | 0.04 kcal/mol
ATATGCACGTGGTGGG | -0.1 kcal/mol
TTATCCACGTGTATGT | 0.07 kcal/mol
TGGAGCACGTGTGCAG | -0.14 kcal/mol
TGGTACACGTGGCGCG | -0.01 kcal/mol
AAGTTCACGTGTTGGT | 0.18 kcal/mol
